Data published in publication PMC12820563.
The other results are listed elsewhere or left out. The list includes weakly bound sequences.

target: T1, MBP-FoxP3dN (UniProt Q99JB6); assay: PD-seq (MBP pull-down with sequencing); settings: 20 mM Tris-HCl pH 7.5, 100 mM NaCl, 1.5 mM MgCl2, 0.4 uM protein, 0.1 uM dsDNA library, 30 min, room temperature, amylose pull-down; high values mean tight binding; double strand, one strand shown
T1 sequence: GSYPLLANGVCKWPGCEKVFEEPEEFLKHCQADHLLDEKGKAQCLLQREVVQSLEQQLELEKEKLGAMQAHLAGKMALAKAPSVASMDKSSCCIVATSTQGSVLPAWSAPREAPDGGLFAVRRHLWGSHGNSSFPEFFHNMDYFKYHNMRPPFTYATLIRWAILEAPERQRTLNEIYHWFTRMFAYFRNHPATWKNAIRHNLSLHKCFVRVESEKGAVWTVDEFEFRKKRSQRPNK

| Sequence | binding signal (RPM ratio (pull-down/input)) |
| --- | --- |
| GATGATTGTTCTCCCAGCTGATGAATTCCAAGTATCGAGTAAACAAATTTTCCTAATCTTTCTGTTCAAGCGCCATCTAC | 0.407 |
| GATGATTGTTCTCCCAGCTGATGAATTATATAGTTCGAGTAAACAAATTTTCCTAATCTTTCTGTTCAAGCGCCATCTAC | 0.79 |
| GATGATTGTTCTCCCAGCTGATGAATTGGGTTCCTCGAGTAAACAAATTTTCCTAATCTTTCTGTTCAAGCGCCATCTAC | 0.652 |
| GATGATTGTTCTCCCAGCTGATGAATTACTACAATCGAGTAAACAAATTTTCCTAATCTTTCTGTTCAAGCGCCATCTAC | 0.669 |
| GATGATTGTTCTCCCAGCTGATGAATTGGTAACGTCGAGTAAACAAATTTTCCTAATCTTTCTGTTCAAGCGCCATCTAC | 0.495 |
| GATGATTGTTCTCCCAGCTGATGAATTCCACTCTTCGAGTAAACAAATTTTCCTAATCTTTCTGTTCAAGCGCCATCTAC | 0.373 |
| GATGATTGTTCTCCCAGCTGATGAATTGGTGAAGTCGAGTAAACAAATTTTCCTAATCTTTCTGTTCAAGCGCCATCTAC | 0.273 |
| GATGATTGTTCTCCCAGCTGATGAATTCCTGCAGTCGAGTAAACAAATTTTCCTAATCTTTCTGTTCAAGCGCCATCTAC | 0.444 |
| GATGATTGTTCTCCCAGCTGATGAATTGATTCAGTCGAGTAAACAAATTTTCCTAATCTTTCTGTTCAAGCGCCATCTAC | 0.28 |
| GATGATTGTTCTCCCAGCTGATGAATTATGTTGTTCGAGTAAACAAATTTTCCTAATCTTTCTGTTCAAGCGCCATCTAC | 7.62 |
| GATGATTGTTCTCCCAGCTGATGAATTCGGGGTATCGAGTAAACAAATTTTCCTAATCTTTCTGTTCAAGCGCCATCTAC | 0.625 |
| GATGATTGTTCTCCCAGCTGATGAATTTAAGGGATCGAGTAAACAAATTTTCCTAATCTTTCTGTTCAAGCGCCATCTAC | 0.261 |
| GATGATTGTTCTCCCAGCTGATGAATTTTCAATTTCGAGTAAACAAATTTTCCTAATCTTTCTGTTCAAGCGCCATCTAC | 0.283 |
| GATGATTGTTCTCCCAGCTGATGAATTGCGTAGGTCGAGTAAACAAATTTTCCTAATCTTTCTGTTCAAGCGCCATCTAC | 0.803 |
| GATGATTGTTCTCCCAGCTGATGAATTCGTGGTGTCGAGTAAACAAATTTTCCTAATCTTTCTGTTCAAGCGCCATCTAC | 2.02 |
| GATGATTGTTCTCCCAGCTGATGAATTGAAACAGTCGAGTAAACAAATTTTCCTAATCTTTCTGTTCAAGCGCCATCTAC | 0.416 |
| GATGATTGTTCTCCCAGCTGATGAATTCTAGCGCTCGAGTAAACAAATTTTCCTAATCTTTCTGTTCAAGCGCCATCTAC | 0.451 |
| GATGATTGTTCTCCCAGCTGATGAATTGTGTCTCTCGAGTAAACAAATTTTCCTAATCTTTCTGTTCAAGCGCCATCTAC | 2.14 |
| GATGATTGTTCTCCCAGCTGATGAATTCGATAGTTCGAGTAAACAAATTTTCCTAATCTTTCTGTTCAAGCGCCATCTAC | 2.01 |
| GATGATTGTTCTCCCAGCTGATGAATTCGAAATCTCGAGTAAACAAATTTTCCTAATCTTTCTGTTCAAGCGCCATCTAC | 0.286 |

| Sequence | binding signal (RPM ratio (pull-down/input)) |
| --- | --- |
| GATGATTGTTCTCCCAGCTGATGAATTAACGTCCTCGAGTAAACAAATTTTCCTAATCTTTCTGTTCAAGCGCCATCTAC | 0.375 |
| GATGATTGTTCTCCCAGCTGATGAATTCGTCCCATCGAGTAAACAAATTTTCCTAATCTTTCTGTTCAAGCGCCATCTAC | 0.567 |
| GATGATTGTTCTCCCAGCTGATGAATTTCCAGCCTCGAGTAAACAAATTTTCCTAATCTTTCTGTTCAAGCGCCATCTAC | 0.346 |
| GATGATTGTTCTCCCAGCTGATGAATTCCCACTCTCGAGTAAACAAATTTTCCTAATCTTTCTGTTCAAGCGCCATCTAC | 0.323 |
| GATGATTGTTCTCCCAGCTGATGAATTCCGTCGATCGAGTAAACAAATTTTCCTAATCTTTCTGTTCAAGCGCCATCTAC | 0.322 |
| GATGATTGTTCTCCCAGCTGATGAATTGGCCGACTCGAGTAAACAAATTTTCCTAATCTTTCTGTTCAAGCGCCATCTAC | 0.231 |
| GATGATTGTTCTCCCAGCTGATGAATTCTATGTCTCGAGTAAACAAATTTTCCTAATCTTTCTGTTCAAGCGCCATCTAC | 0.989 |
| GATGATTGTTCTCCCAGCTGATGAATTGTCCCGATCGAGTAAACAAATTTTCCTAATCTTTCTGTTCAAGCGCCATCTAC | 0.266 |
| GATGATTGTTCTCCCAGCTGATGAATTTGTGTATTCGAGTAAACAAATTTTCCTAATCTTTCTGTTCAAGCGCCATCTAC | 6.95 |
| GATGATTGTTCTCCCAGCTGATGAATTCCTTGCATCGAGTAAACAAATTTTCCTAATCTTTCTGTTCAAGCGCCATCTAC | 0.828 |
| GATGATTGTTCTCCCAGCTGATGAATTTAGAATATCGAGTAAACAAATTTTCCTAATCTTTCTGTTCAAGCGCCATCTAC | 0.513 |
| GATGATTGTTCTCCCAGCTGATGAATTAACCCCCTCGAGTAAACAAATTTTCCTAATCTTTCTGTTCAAGCGCCATCTAC | 0.257 |
| GATGATTGTTCTCCCAGCTGATGAATTATTCATTTCGAGTAAACAAATTTTCCTAATCTTTCTGTTCAAGCGCCATCTAC | 0.406 |
| GATGATTGTTCTCCCAGCTGATGAATTTGACGGTTCGAGTAAACAAATTTTCCTAATCTTTCTGTTCAAGCGCCATCTAC | 0.564 |
| GATGATTGTTCTCCCAGCTGATGAATTCGGCGAGTCGAGTAAACAAATTTTCCTAATCTTTCTGTTCAAGCGCCATCTAC | 0.586 |
| GATGATTGTTCTCCCAGCTGATGAATTGGCGGTGTCGAGTAAACAAATTTTCCTAATCTTTCTGTTCAAGCGCCATCTAC | 0.567 |
| GATGATTGTTCTCCCAGCTGATGAATTTCGATGTTCGAGTAAACAAATTTTCCTAATCTTTCTGTTCAAGCGCCATCTAC | 1.93 |
| GATGATTGTTCTCCCAGCTGATGAATTGTGCGGGTCGAGTAAACAAATTTTCCTAATCTTTCTGTTCAAGCGCCATCTAC | 1.39 |
| GATGATTGTTCTCCCAGCTGATGAATTCCACACGTCGAGTAAACAAATTTTCCTAATCTTTCTGTTCAAGCGCCATCTAC | 0.3 |
| GATGATTGTTCTCCCAGCTGATGAATTGTGAGACTCGAGTAAACAAATTTTCCTAATCTTTCTGTTCAAGCGCCATCTAC | 1.14 |
